According to the RNAGym collection of RNA variant scans (doi:10.7554/elife.90254):
The source gives no read counts; variants with many changes may rest on few reads.

B1: LINE1-full (parent)
chain: UACGUAGGUGGUUUUCCCCUGAUAGUGCUAAGGGGGCCUGGAAGUUUGGACUGGGCAGAGCUCAACACAGCGUGGCAAAGUGGCUGUGGCUAGACUGCCUCUCUGGAUUCCUCGUCACUCAGCAGGGCAUCUCUGAGAGAAAUGCC

Variants of: B1
Test: self-cleavage, relative activity (ratio to wild type); higher = more cleavage; in vitro, sequencing; the parent is a self-cleaving ribozyme

Variant | self-cleavage
A79G G82A C113A | 1.48
U85C U102C A121G C123U | 0.18
A79G U115C U143C | 1.2
U87A A129U U143C | 0.07
A78G A94U U100C | 0.21
A77U A78G G139A A141G | 1.11
A78G G82U U91A A142G | 0.73
U73C U81G U85C U87A A117U | 0
A79G G88A A142G | 0.06
A77C U109A U130C | 1.38
A78G U112C A129U | 1.42
G86A U102C U132C | 0.03
C84A U112C A140G | 0.05
U73C U115C U119C | 0.71
U73C G80A A121U | 2.15
U85C A121U A140G | 0
A77U U96C A138U A140U | 0
G74U A138G A142G | 1.69
A77U G89A U100C U109A | 0.1
A77G A107G A121G | 1.84
U73C U91A U96A U100C U104C A121U U143A | 0
U85C U96C G97C A121G | 0
U87A G105U A124U | 0.14
C76U A94G A117G A136G | 0.54

Variant | self-cleavage
A77G U91C A92G U96A | 0
A77U C99U U104A A140G | 0.12
A78G A79G U91A | 1.06
A77C A107G U119A | 1.02
A77G G125A A138U | 2.07
U81A G86A A94C U112C | 0.05
G74A U91C A94G A117G | 0
G83A U108C U109C A140U | 1.25
U85C A121U A142G | 0.11
G82A U100C U104C A136G | 2.67
G75A C113U U119A | 0.47
U81A A94G U119C A129U | 0
U85C A94C C101U U102A | 0
A77G A92U A94G G122C U143A | 0.14
A78U U91A U102C A141G | 0.7
A77G U104A A107U | 1.15
A78G U119C U130A | 1.81
U73C U132C A138G | 1.12
G75A U115C U119A | 1.79
U81C U115A G135A | 0.21
A79G U112C C145U | 0.65
U73C C123U G125A U132A A140G | 2.28
A79G U112C C120A | 0.78
U73C U119C A141G | 1.64

Variant | self-cleavage
A78U A136G U143A | 2.16
U85C U115C A141G | 0
U85A A124C A136G A138G | 0.22
A79U U81A U85C U115A | 0.3
U85C A92G A94G | 0
A77G U130C A136G | 2.7
A78G A79G U104A U132C | 1.62
U81A U134A A142U | 1.67
A79U C110A U143G | 1.78
A77C U130A U143C | 1.87
U85A U109C A117G U119A | 0.07
A79G A92G U115C | 0
U85C U143C C145U | 0.26
A79G A117G A141G | 0
A77U U132C A138G | 0.54
U85A U96C A141G | 0.3
U85C U104A C128U | 0.15
U73C A129G U132C | 1.15
U81C U109A G127A | 0.99
G75U G82U U104C A129G | 0.71
U73C U85A A121U | 0.12
A78G U112G C113U | 1.85
A77G C84G U132C A142G | 0.11
U85C A94U U115C A124G | 0

Variant | self-cleavage
G74U A79G U104A | 0.89
A77G U130C A140G C145A | 2.76
U81C C90U A138C | 0.06
A79G U132C A140G | 1.17
A77G A79G U104A A138U | 1.4
U73C U91C C101G | 0
U81C U108G A129G | 1.31
A77U U81A U102A | 2.37
U85C U96A A117U A141G | 0.07
U73C A138G A142C | 2.19
A77U U81C U100A A140G | 1.84
U85C U109C U134A | 0.31
G74A C103A A129G | 0.8
G75A A94G U96C C118U | 0.04
U87A A94U U109A A140G | 0.08
U85A U102C U143A | 0.03
A79U A117G A140G | 2.09
A78G G83A U108A | 0.62
U85C U100A G122A | 0.08
U73G U81A A124U | 1.43
U73C A124G U134C | 1.44
U81A U112A A136G | 1.75
A77G C90U U102C | 0.03
A77G A78G A129C | 1.53

Variant | self-cleavage
A78G G122A A142G | 1.42
A77G A129U U134C U143C | 0.48
U81C U87C C120U | 0.39
A77U U85C A121U | 0.09
U81C U100C A142G | 0.74
G75U A136G U143C | 0.83
A78U A124G U132C | 1.45
A79G U87A A107G A138G | 0
U85A A121C U143C | 0.1
A79U A107G G122A | 2.34
A77G C84U U100A U104C A121U | 0.13
A77G G97A U132C | 0.14
U81G U108C A121U | 1.46
A78U A107G A140U | 2.05
G82A U87A C145G | 0.13
A78G U87A C99U | 0.03
A78U U96A U119C | 0.07
U73G U102C G114U | 1.63
G75A A107G U119C | 1.11
U81A U96A A124G | 0.12
G74A U81C U102C | 0.93
G83A A121U A124G | 0.99
A79G U112C A138U | 1.06
A79G U112C A138G | 1.41

Variant | self-cleavage
G82A U96C U104A A117U | 0.05
A79U U102C A117U | 1.7
A77U U91A U119C | 0.58
C76U A94G U108C U132C | 0.11
A77G U104C G137A | 2.02
A77G U108C U130C | 2.63
A77U A92G U100C U130C | 0
A77G A129U U143C | 2.22
A77G A129U U143A | 1.95
G74A U91C A94G C95G | 0.05
A77U C103U A129G U132C | 0.86
C76U U119A U134C | 2.44
U81C U100C C118A G127C A140G | 2.43
U81C U96A A121U | 0.08
A79G U87A G105A | 0.08
U85C A121C A140U U143C | 0.17
A78G G125A U130G | 1.59
U85A A136G A138G | 0.2
A78G U115C G125U A142G | 2.01
U81A A107G U119A | 2.81
U81A U104A U115A A136G A142G | 2.76
A77G U96A A129G U143C | 0.07
A79U U87C U104C C113U | 0.28
U85C U91A A142G | 0

Variant | self-cleavage
U73C U87C U112C A140G | 0
U85C U87C A140G | 0
U73C U100C U130C U143A | 1.02
U85A A94G U104C | 0.15
A78U U102A A141G | 2.15
G82A U85A A121C | 0.12
U73C U81A C103U C128U | 1.71
U81A U108C A124U C133U A136G | 2.87
U87A A129G A138C | 0.07
U73C U91C U102A | 0.37
A77G U85C U102A | 0.59
C84U A107G C133U U143C | 0.17
A78G U85C C99U U132C A140U | 0.08
U87A A107G C123U U134C | 0.07
U81C U102A U104C | 0
U73G A79G U112C | 1.58
G74U A77U G86A A124G U132C A138G | 0.06
A77G U100A U112C U115C | 0
C84G A141G U143C | 0.05
A78G U85A G137A A138G | 0.16
A79G A107U U132A A142G | 0.61
U87A A107U U119A A140U | 0.05
A78U U109C A129U | 2.39
